# Results published in the supplement of paper PMC8728848.
# The list shows a part of the results.
# How the values were obtained:
# Assay in all cases: glycan array binding signal (z-score within array); higher = stronger binding
# Details in all cases: glycan notation: IUPAC condensed, linker removed
# Fuc(a1-2)Gal = target: Fuc(a1-2)Gal
# How it was run: (§1)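 The binding signal is a Z-score computed within each array. Data were drawn from 3228 arrays in the Consortium for Functional Glycomics database, restricted to those with a known protein sequence. Scores were averaged over arrays of the same protein sequence at different concentrations or buffers, and over linkers, and negative values can be taken as non-binding.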
# Fuc(a1-2)Gal(b1-3)GalNAc = target: Fuc(a1-2)Gal(b1-3)GalNAc
# How it was run: as §1
# [1] = target: Fuc(a1-2)Gal(b1-3)GalNAc(a1-3)[Fuc(a1-2)]Gal(b1-4)Glc
# How it was run: as §1
# [2] = target: Fuc(a1-2)Gal(b1-3)GalNAc(a1-3)[Fuc(a1-2)]Gal(b1-4)GlcNAc
# How it was run: as §1
# [3] = target: Fuc(a1-2)Gal(b1-3)GalNAc(b1-3)Gal
# How it was run: as §1
# [4] = target: Fuc(a1-2)Gal(b1-3)GalNAc(b1-3)Gal(a1-4)Gal(b1-4)Glc
# How it was run: as §1
# [5] = target: Fuc(a1-2)Gal(b1-3)GalNAc(b1-4)[Neu5Ac(a2-3)]Gal(b1-4)Glc
# How it was run: as §1
# Fuc(a1-2)Gal(b1-3)GlcNAc = target: Fuc(a1-2)Gal(b1-3)GlcNAc
# How it was run: as §1
# [6] = target: Fuc(a1-2)Gal(b1-3)GlcNAc(b1-2)Man(a1-3)[Fuc(a1-2)Gal(b1-3)GlcNAc(b1-2)Man(a1-6)]Man(b1-4)GlcNAc(b1-4)GlcNAc
# How it was run: as §1
# [7] = target: Fuc(a1-2)Gal(b1-3)GlcNAc(b1-3)Gal(b1-4)Glc
# How it was run: as §1
# [8] = target: Fuc(a1-2)Gal(b1-3)GlcNAc(b1-3)[Fuc(a1-3)[Gal(b1-4)]GlcNAc(b1-6)]Gal(b1-4)Glc
# How it was run: as §1
# [9] = target: Fuc(a1-2)Gal(b1-3)[Fuc(a1-4)]GlcNAc
# How it was run: as §1
# [10] = target: Fuc(a1-2)Gal(b1-3)[Fuc(a1-4)]GlcNAc(b1-2)Man(a1-3)[Fuc(a1-2)Gal(b1-3)[Fuc(a1-4)]GlcNAc(b1-2)Man(a1-6)]Man(b1-4)GlcNAc(b1-4)GlcNAc
# How it was run: as §1
# [11] = target: Fuc(a1-2)Gal(b1-3)[Fuc(a1-4)]GlcNAc(b1-3)[Fuc(a1-3)[Gal(b1-4)]GlcNAc(b1-6)]Gal(b1-4)Glc
# How it was run: as §1
# [12] = target: Fuc(a1-2)Gal(b1-3)[Fuc(a1-4)]GlcNAc(b1-3)[Gal(b1-4)GlcNAc(b1-6)]Gal(b1-4)Glc
# How it was run: as §1
# Fuc(a1-2)Gal(b1-4)Glc = target: Fuc(a1-2)Gal(b1-4)Glc
# How it was run: as §1
# Fuc(a1-2)Gal(b1-4)Glc6S = target: Fuc(a1-2)Gal(b1-4)Glc6S
# How it was run: as §1
# Fuc(a1-2)Gal(b1-4)GlcNAc = target: Fuc(a1-2)Gal(b1-4)GlcNAc
# How it was run: as §1
# [13] = target: Fuc(a1-2)Gal(b1-4)GlcNAc(b1-2)Man(a1-3)[Fuc(a1-2)Gal(b1-4)GlcNAc(b1-2)Man(a1-6)]Man(b1-4)GlcNAc(b1-4)GlcNAc
# How it was run: as §1
# [14] = target: Fuc(a1-2)Gal(b1-4)GlcNAc(b1-3)Gal(b1-4)GlcNAc
# How it was run: as §1
# [15] = target: Fuc(a1-2)Gal(b1-4)GlcNAc(b1-3)Gal(b1-4)GlcNAc(b1-3)Gal(b1-4)GlcNAc
# How it was run: as §1
# [16] = target: Fuc(a1-2)Gal(b1-4)GlcNAc(b1-3)GalNAc
# How it was run: as §1
# [17] = target: Fuc(a1-2)Gal(b1-4)GlcNAc6S
# How it was run: as §1
# [18] = target: Fuc(a1-2)Gal(b1-4)[Fuc(a1-3)]GlcNAc
# How it was run: as §1
# [19] = target: Fuc(a1-2)Gal(b1-4)[Fuc(a1-3)]GlcNAc(b1-2)Man(a1-3)[Fuc(a1-2)Gal(b1-4)[Fuc(a1-3)]GlcNAc(b1-2)Man(a1-6)]Man(b1-4)GlcNAc(b1-4)GlcNAc
# How it was run: as §1
# [20] = target: Fuc(a1-2)Gal(b1-4)[Fuc(a1-3)]GlcNAc(b1-3)Gal(b1-4)[Fuc(a1-3)]GlcNAc
# How it was run: as §1
# [21] = target: Fuc(a1-2)Gal(b1-4)[Fuc(a1-3)]GlcNAc(b1-3)Gal(b1-4)[Fuc(a1-3)]GlcNAc(b1-3)Gal(b1-4)[Fuc(a1-3)]GlcNAc
# How it was run: as §1
# Fuc(a1-2)Gal6S(b1-4)Glc = target: Fuc(a1-2)Gal6S(b1-4)Glc
# How it was run: as §1
# [22] = target: Fuc(a1-2)Gal6S(b1-4)Glc6S
# How it was run: as §1
# [23] = target: Fuc(a1-2)Gal6S(b1-4)GlcNAc
# How it was run: as §1
# Fuc(a1-2)[Gal(a1-3)]Gal = target: Fuc(a1-2)[Gal(a1-3)]Gal
# How it was run: as §1
# [24] = target: Fuc(a1-2)[Gal(a1-3)]Gal(b1-3)GlcNAc
# How it was run: as §1
# [25] = target: Fuc(a1-2)[Gal(a1-3)]Gal(b1-3)GlcNAc(b1-2)Man(a1-3)[Fuc(a1-2)[Gal(a1-3)]Gal(b1-3)GlcNAc(b1-2)Man(a1-6)]Man(b1-4)GlcNAc(b1-4)GlcNAc
# How it was run: as §1
# [26] = target: Fuc(a1-2)[Gal(a1-3)]Gal(b1-4)Glc
# How it was run: as §1
# [27] = target: Fuc(a1-2)[Gal(a1-3)]Gal(b1-4)GlcNAc
# How it was run: as §1
# [28] = target: Fuc(a1-2)[Gal(a1-3)]Gal(b1-4)GlcNAc(b1-2)Man(a1-3)[Fuc(a1-2)[Gal(a1-3)]Gal(b1-4)GlcNAc(b1-2)Man(a1-6)]Man(b1-4)GlcNAc(b1-4)GlcNAc
# How it was run: as §1
# [29] = target: Fuc(a1-2)[Gal(a1-3)]Gal(b1-4)[Fuc(a1-3)]GlcNAc
# How it was run: as §1
binder,measurement,setting,value
"Galatrox (Botrops atrox), P0DM53 (protein) NNCPQDWLPMNGLCYKIFDELKAWKDAEMFCRKYKPGCHLASIILYGESPEWAEGHSEVWLGLWDKKKDFSWEWTDR",glycan array binding signal (z-score),Fuc(a1-2)Gal,-0.361
same,glycan array binding signal (z-score),Fuc(a1-2)Gal(b1-3)GalNAc,-0.358
same,glycan array binding signal (z-score),[1],-0.354
same,glycan array binding signal (z-score),[2],-0.363
same,glycan array binding signal (z-score),[3],-0.365
same,glycan array binding signal (z-score),[4],-0.358
same,glycan array binding signal (z-score),[5],-0.358
same,glycan array binding signal (z-score),Fuc(a1-2)Gal(b1-3)GlcNAc,-0.36
same,glycan array binding signal (z-score),[6],-0.357
same,glycan array binding signal (z-score),[7],-0.369
same,glycan array binding signal (z-score),[8],-0.364
same,glycan array binding signal (z-score),[9],-0.363
same,glycan array binding signal (z-score),[10],-0.293
same,glycan array binding signal (z-score),[11],0.366
same,glycan array binding signal (z-score),[12],0.872
same,glycan array binding signal (z-score),Fuc(a1-2)Gal(b1-4)Glc,-0.364
same,glycan array binding signal (z-score),Fuc(a1-2)Gal(b1-4)Glc6S,-0.355
same,glycan array binding signal (z-score),Fuc(a1-2)Gal(b1-4)GlcNAc,-0.364
same,glycan array binding signal (z-score),[13],-0.264
same,glycan array binding signal (z-score),[14],-0.362
same,glycan array binding signal (z-score),[15],-0.357
same,glycan array binding signal (z-score),[16],-0.36
same,glycan array binding signal (z-score),[17],-0.349
same,glycan array binding signal (z-score),[18],-0.364
same,glycan array binding signal (z-score),[19],0.123
same,glycan array binding signal (z-score),[20],-0.349
same,glycan array binding signal (z-score),[21],-0.346
same,glycan array binding signal (z-score),Fuc(a1-2)Gal6S(b1-4)Glc,-0.358
same,glycan array binding signal (z-score),[22],-0.373
same,glycan array binding signal (z-score),[23],-0.367
same,glycan array binding signal (z-score),Fuc(a1-2)[Gal(a1-3)]Gal,-0.363
same,glycan array binding signal (z-score),[24],-0.346
same,glycan array binding signal (z-score),[25],-0.079
same,glycan array binding signal (z-score),[26],-0.38
same,glycan array binding signal (z-score),[27],-0.351
same,glycan array binding signal (z-score),[28],-0.278
same,glycan array binding signal (z-score),[29],-0.343
